Results are given in words; binding and its absence hold for the method and conditions named. For part of these data: In cells and extracts the contact can be indirect. Some binding calls cover weakened binding; strength is not graded here. Sequences can lack the tags named with a protein.

Protein sequences, listed by entry. Tags and fused reporters are not part of them.
UniProt O94953: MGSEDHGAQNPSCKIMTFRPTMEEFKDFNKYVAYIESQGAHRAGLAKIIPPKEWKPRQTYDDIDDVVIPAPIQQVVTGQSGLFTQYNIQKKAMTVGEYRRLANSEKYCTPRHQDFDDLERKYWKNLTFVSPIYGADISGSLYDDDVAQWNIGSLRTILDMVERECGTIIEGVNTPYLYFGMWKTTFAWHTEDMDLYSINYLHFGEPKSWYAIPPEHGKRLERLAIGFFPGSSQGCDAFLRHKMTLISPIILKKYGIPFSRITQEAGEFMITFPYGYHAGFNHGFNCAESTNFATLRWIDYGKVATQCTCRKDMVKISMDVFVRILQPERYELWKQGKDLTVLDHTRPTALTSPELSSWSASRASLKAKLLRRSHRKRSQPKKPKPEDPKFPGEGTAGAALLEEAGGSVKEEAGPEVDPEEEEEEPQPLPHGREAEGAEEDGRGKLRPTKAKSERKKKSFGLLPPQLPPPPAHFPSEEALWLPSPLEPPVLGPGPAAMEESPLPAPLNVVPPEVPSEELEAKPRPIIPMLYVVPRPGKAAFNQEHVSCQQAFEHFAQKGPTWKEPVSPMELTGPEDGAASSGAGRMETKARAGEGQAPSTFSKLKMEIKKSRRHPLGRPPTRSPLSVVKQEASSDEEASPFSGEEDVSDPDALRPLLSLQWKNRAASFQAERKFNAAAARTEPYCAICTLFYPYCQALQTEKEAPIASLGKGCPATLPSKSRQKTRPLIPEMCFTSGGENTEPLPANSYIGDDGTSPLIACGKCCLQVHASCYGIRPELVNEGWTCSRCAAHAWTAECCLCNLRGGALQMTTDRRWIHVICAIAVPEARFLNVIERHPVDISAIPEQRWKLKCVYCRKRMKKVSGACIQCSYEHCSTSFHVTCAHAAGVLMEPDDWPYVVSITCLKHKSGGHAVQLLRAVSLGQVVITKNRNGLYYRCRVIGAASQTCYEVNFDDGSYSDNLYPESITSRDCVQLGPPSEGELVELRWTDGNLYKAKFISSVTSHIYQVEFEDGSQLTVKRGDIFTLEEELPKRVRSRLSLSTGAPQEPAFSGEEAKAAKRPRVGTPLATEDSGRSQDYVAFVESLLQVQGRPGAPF

The record followed here is article PMC5908291, “The JmjN domain as a dimerization interface and a targeted inhibitor of KDM4 demethylase activity” (Oncotarget, 2018).

Test [1] has as its target T1, isolated JmjC domain of KDM4C with a C-terminal YN or YC tag (human) (UniProt Q9H3R0).
T1 sequence: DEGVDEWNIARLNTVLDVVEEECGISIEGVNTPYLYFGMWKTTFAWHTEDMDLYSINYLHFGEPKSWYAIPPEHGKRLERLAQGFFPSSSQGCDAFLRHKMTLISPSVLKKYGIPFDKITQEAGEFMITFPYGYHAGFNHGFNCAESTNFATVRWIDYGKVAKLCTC
The test can be described thus: split reporter; BiFC (Venus YN + YC), live cell confocal imaging of HEK293 cells 20 h after co-transfection, 37°C, 5% CO2.

Test [2] has as its target T1, isolated JmjC domain of KDM4C with a C-terminal YN or YC tag (human). The test can be described thus: SDS-PAGE and Western blot (dimer band); total cell extracts (50 μg) of HEK293 cells transfected with YN- and YC-tagged domains, 12.5% SDS-PAGE, anti-YFP blot. In general terms: In western blotting, separated proteins are transferred to a membrane and probed.
The target in test [3] is isolated JmjN domain of KDM4C with a C-terminal YN or YC tag (human) (UniProt Q9H3R0). The test can be described thus: split reporter; BiFC (Venus YN + YC), live cell confocal imaging of HEK293 cells 20 h after co-transfection, 37°C, 5% CO2.
The target in test [4] is T2, KDM4C with a C-terminal YN or YC tag (human, UniProt Q9H3R0 1-1056).
T2 construct: Lysine demethylase KDM4C (GASC1), human, ORF amplified from pCMV-HA-GASC1; 1056 aa as printed; BiFC pair: one molecule stands for the YN and the YC conjugate; also called KDM4C-YN; KDM4C-YC; source: HEK293, transiently transfected, in cells; not shown: YN (Venus YFP residues 1-172) on one copy or YC (Venus YFP residues 155-238) on the other, C-terminal, kept
T2 sequence (looked up): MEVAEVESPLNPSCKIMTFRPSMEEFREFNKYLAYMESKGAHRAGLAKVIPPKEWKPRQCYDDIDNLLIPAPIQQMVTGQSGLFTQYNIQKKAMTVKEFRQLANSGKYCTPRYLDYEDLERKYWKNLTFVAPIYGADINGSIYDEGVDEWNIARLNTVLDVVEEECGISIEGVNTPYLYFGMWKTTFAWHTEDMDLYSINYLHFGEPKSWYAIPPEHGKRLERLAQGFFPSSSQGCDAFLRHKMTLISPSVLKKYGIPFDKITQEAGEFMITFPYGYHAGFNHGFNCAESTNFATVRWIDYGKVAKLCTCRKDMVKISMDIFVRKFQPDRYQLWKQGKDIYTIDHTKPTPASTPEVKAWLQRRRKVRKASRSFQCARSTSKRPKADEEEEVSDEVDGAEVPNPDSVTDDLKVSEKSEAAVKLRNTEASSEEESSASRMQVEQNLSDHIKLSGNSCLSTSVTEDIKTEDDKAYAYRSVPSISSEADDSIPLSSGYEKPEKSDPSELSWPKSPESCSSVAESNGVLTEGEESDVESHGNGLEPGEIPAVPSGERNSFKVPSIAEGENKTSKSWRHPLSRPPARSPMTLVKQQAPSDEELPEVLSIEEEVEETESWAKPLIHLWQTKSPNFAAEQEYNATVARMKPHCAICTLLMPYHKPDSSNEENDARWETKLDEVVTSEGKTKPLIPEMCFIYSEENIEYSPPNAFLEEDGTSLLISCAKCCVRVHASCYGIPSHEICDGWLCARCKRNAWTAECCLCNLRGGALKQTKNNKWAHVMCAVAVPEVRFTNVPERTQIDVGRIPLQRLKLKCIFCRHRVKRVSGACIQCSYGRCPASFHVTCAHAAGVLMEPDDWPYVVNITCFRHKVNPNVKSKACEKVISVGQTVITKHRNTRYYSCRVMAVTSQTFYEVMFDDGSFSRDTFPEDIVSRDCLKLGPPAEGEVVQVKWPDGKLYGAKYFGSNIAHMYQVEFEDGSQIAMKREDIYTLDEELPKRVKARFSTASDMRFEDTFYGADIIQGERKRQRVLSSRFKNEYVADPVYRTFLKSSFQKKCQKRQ
The test can be described thus: split reporter; BiFC (Venus YN + YC), immunofluorescence microscopy of fixed, permeabilised HEK293 cells 20 h after co-transfection; transfected cells marked by anti-YFP, anti-KDM4C or anti-HA.

The target of test [5] is isolated JmjN domain of KDM4C with a C-terminal YN or YC tag (human) (UniProt Q9H3R0). The description is as above.
Test [6] addresses KDM4B with a C-terminal YN or YC tag (human) (UniProt O94953). Described as above.
Test [7] addresses T3, KDM4A with a C-terminal YN or YC tag (human) (UniProt O75164).
T3 sequence: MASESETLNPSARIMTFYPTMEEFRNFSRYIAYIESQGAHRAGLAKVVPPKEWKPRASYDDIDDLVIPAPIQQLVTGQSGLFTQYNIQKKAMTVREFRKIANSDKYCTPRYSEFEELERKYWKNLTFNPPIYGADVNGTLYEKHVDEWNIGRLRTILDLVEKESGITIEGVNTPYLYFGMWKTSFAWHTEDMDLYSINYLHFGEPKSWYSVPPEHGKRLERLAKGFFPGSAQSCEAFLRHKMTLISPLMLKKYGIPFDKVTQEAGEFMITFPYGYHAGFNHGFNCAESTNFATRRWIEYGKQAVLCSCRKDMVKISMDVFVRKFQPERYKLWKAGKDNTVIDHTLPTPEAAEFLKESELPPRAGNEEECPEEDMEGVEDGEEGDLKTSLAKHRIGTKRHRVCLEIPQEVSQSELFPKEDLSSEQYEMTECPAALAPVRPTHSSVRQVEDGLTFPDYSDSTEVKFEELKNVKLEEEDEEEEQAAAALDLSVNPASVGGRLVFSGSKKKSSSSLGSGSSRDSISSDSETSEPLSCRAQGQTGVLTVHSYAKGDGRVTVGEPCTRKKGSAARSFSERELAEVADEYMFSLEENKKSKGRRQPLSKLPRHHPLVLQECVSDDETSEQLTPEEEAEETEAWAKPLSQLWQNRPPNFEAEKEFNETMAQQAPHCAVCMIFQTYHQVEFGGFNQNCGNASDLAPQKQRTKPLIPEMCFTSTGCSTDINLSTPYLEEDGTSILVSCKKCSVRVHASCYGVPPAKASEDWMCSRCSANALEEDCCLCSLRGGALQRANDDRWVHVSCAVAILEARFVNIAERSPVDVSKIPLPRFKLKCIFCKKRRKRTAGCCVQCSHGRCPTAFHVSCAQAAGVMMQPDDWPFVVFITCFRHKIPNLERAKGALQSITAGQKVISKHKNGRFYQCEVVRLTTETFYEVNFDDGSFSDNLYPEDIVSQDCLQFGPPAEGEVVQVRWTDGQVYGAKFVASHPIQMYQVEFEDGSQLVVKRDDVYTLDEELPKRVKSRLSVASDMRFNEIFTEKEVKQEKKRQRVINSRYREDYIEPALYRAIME
The test is described as above.

In test [8] the target is T1, isolated JmjC domain of KDM4C with a C-terminal YN or YC tag (human). The description is as above.
Test [9] has as its target isolated JmjN domain of KDM4C with a C-terminal YN or YC tag (human) (UniProt Q9H3R0). Description: SDS-PAGE and Western blot (dimer band); total cell extracts (50 μg) of HEK293 cells transfected with YN- and YC-tagged domains, 12.5% SDS-PAGE, anti-YFP blot.

B1: isolated JmjC domain of KDM4C with a C-terminal YN or YC tag (domain or fragment, UniProt Q9H3R0 144-310)
chain: DEGVDEWNIARLNTVLDVVEEECGISIEGVNTPYLYFGMWKTTFAWHTEDMDLYSINYLHFGEPKSWYAIPPEHGKRLERLAQGFFPSSSQGCDAFLRHKMTLISPSVLKKYGIPFDKITQEAGEFMITFPYGYHAGFNHGFNCAESTNFATVRWIDYGKVAKLCTC
On to B1, for which the binding result in test [1] and in [2] was “no binding” each time.

B2: isolated JmjN domain of KDM4C with a C-terminal YN or YC tag (domain or fragment, UniProt Q9H3R0 1-58)
chain: MEVAEVESPLNPSCKIMTFRPSMEEFREFNKYLAYMESKGAHRAGLAKVIPPKEWKPR
Regarding B2, the binding result is “binds” in test [3]; “binds” in [4]; “binds” in test [5]; “binds” in test [6]; “binds” in test [7]; “no binding” in test [8]. For the same molecule, the binding entry in [9] is recorded as “binds”.
